Laboratory results taken from the supplement of paper PMC6531468.
Some of the results follow. Values come from read counts of a selection and are noisy. Each score is taken over the longer molecules that contain the sequence shown.

Experiments:
Test in all cases: 6-mer SELEX enrichment z-score vs GST control; IMP3 is the RNA-binding protein IGF2BP3; higher = more enriched by binding
IMP3 KH1-4 = details: construct: KH1-4 (164-579); SELEX round: R4
Experimental: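 SELEX-seq with GST-tagged IMP3 KH1-4 (Pro164-Lys579) and an N40 RNA pool, round 4. 6-mer z-score of sequence-tag enrichment normalised to the corresponding GST SELEX round; RNA k-mers written as DNA (T for U).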

IMP3 RRM1-2 = details: construct: RRM1-2 (1-163); SELEX round: R2
Experimental: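 SELEX-seq with GST-tagged IMP3 RRM1-2 (Met1-Asn163) and an N40 RNA pool, round 2. 6-mer enrichment z-score normalised to GST SELEX. RNA written as DNA (T = U).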

IMP3 full-length = IMP3 full-length (UniProt O00425); details: construct: FL IMP3 (1-579); SELEX round: R4
Experimental: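 SELEX-seq with GST-tagged full-length IMP3 and an N40 RNA pool, round 4. Each 6-mer is scored as an enrichment z-score of sequence tags containing it, normalised to the matching GST SELEX round. RNA written as DNA (T = U).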

IMP3 KH3-4 = details: construct: KH3-4 (377-579); SELEX round: R4
Experimental: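 SELEX-seq with GST-tagged IMP3 KH3-4 (Pro377-Lys579) and an N40 RNA pool, round 4. 6-mer z-score of sequence-tag enrichment normalised to the corresponding GST SELEX round; RNA k-mers written as DNA (T for U).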

Chain of IMP3 RRM1-2 (chain, as listed by the source): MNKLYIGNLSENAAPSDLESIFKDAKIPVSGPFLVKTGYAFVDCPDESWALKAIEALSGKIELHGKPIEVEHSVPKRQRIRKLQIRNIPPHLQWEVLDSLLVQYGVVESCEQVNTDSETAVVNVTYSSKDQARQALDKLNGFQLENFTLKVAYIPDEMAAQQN
Chain of UniProt O00425 (O00425 whole entry): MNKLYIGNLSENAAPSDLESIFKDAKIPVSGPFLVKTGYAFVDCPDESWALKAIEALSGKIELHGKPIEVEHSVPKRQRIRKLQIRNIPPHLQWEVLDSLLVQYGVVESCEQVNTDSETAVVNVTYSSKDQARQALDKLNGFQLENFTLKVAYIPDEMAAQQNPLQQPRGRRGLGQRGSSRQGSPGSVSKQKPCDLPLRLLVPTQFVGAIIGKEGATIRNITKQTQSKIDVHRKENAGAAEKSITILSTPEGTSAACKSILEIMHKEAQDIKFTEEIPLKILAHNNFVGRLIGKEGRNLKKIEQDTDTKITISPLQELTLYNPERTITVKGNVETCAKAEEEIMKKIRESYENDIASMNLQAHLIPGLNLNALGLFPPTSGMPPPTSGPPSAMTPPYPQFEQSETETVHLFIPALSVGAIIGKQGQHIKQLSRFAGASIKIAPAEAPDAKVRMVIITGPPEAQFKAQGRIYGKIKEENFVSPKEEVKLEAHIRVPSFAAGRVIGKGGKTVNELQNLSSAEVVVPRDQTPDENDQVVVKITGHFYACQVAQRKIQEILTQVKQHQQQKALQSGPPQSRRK
Chain of IMP3 KH1-4 (chain, as listed by the source): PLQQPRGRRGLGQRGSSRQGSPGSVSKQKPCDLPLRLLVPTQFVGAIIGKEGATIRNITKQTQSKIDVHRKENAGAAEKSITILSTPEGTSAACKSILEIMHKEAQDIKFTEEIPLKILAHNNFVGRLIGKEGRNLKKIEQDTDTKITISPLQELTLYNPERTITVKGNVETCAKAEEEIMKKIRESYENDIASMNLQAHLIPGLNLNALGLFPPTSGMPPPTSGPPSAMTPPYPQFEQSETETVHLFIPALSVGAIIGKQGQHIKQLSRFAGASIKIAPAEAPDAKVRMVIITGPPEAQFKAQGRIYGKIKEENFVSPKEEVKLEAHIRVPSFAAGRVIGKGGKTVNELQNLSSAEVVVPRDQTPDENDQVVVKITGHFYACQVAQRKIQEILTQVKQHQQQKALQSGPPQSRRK
Chain of IMP3 KH3-4 (chain, as listed by the source): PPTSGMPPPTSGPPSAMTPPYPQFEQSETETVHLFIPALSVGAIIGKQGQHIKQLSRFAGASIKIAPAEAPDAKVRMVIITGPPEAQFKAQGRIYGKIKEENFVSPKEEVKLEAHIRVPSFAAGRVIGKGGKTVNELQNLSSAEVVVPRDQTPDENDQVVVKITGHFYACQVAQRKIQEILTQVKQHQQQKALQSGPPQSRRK

| Sequence | 6-mer SELEX enrichment z-score (IMP3 KH1-4) | 6-mer SELEX enrichment z-score (IMP3 RRM1-2) | 6-mer SELEX enrichment z-score (IMP3 full-length) | 6-mer SELEX enrichment z-score (IMP3 KH3-4) |
| --- | --- | --- | --- | --- |
| GCAACG | -0.261 | -0.346 | 0.425 | -0.575 |
| CGACGG | -0.874 | -0.536 | 0.024 | -0.882 |
| TGAGTC | 0.255 | 0.019 | 0.283 | 0.191 |
| AGTTAT | 0.225 | 0.062 | -0.136 | 0.26 |
| TACACA | 2.02 | 2.69 | 2.29 | 1.51 |
| CTCCAG | -0.6 | -0.031 | -0.227 | -0.749 |
| GTGATC | -0.02 | 0.082 | 0.028 | -0.167 |
| TGGACT | -0.015 | -0.232 | -0.288 | -0.039 |
| TAATGA | 1.01 | -0.832 | -0.628 | 1.91 |
| ACATAG | 1.28 | 1.3 | 1.68 | 1.37 |
| CGCGAC | -0.759 | -0.413 | -0.048 | -0.989 |
| GACTGA | -0.396 | -1.18 | -1.05 | -0.363 |
| CGCGAA | -0.85 | -0.967 | -0.479 | -0.79 |
| ACTGAA | 0.472 | -1.19 | -0.77 | 0.573 |
| CCGAAT | -0.913 | -1.12 | -0.994 | -0.979 |
| TAACTA | 0.986 | -0.355 | -0.381 | 1.44 |
| CGGAAA | -0.455 | -1.53 | -0.876 | -0.012 |
| ACCGAG | -3.46 | -1.13 | -1.27 | -3.15 |
| AAATAG | 0.767 | -1.15 | -0.482 | 1.49 |
| AACTTA | 0.638 | -0.512 | -0.508 | 1.08 |
| AAGTGG | 0.398 | -0.265 | 0.02 | 0.545 |
| CTTGAC | -1.12 | -0.311 | -0.896 | -1.14 |
| CTAACC | -1.1 | -0.547 | -1.5 | -1.43 |
| GTATTA | 0.085 | 0.042 | -0.155 | 0.379 |
